First the molecules themselves.
B1: glmS ribozyme (parent)
chain: AUAAAAGCGCCAGAACUACAGAAAUGUAGUUGACGAGGAGGAGGUUUAUCGAAUUUUCGGCGGAUGCCUCCAAA

± gives the standard error. Variants at the background level are over-represented here.

Conditions in all cases: with glucosamine-6-phosphate
In data set [1] the parent is B1. Kind of data set: self-cleavage kobs at 40 uM GlcN6P; higher = faster cleavage; RNA array. The method in brief: (§1)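 Barcoded glmS ribozyme variants on sequenced MiSeq chips were transcribed in situ by E. coli RNA polymerase and tracked through a hybridised Cy3 probe at 37 °C. Glucosamine-6-phosphate (40 μM to 10 mM) in HEPES/KCl/Mg(OAc)2 buffer was flowed in, and tiles were imaged over ~14 h. Signals were normalised to baseline and to non-cleaving reference variants; per-tile medians were fit to one- or two-exponential decays to give kobs. kcat and KM came from weighted Michaelis–Menten fits across concentrations.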

The variants in data set [2] derive from B1. Kind of data set: self-cleavage kobs at 640 uM GlcN6P; higher = faster cleavage; RNA array. The method in brief: as §1
Data set [3] covers variants of B1. Kind of data set: self-cleavage kobs at 160 uM GlcN6P; higher = faster cleavage; RNA array. The essentials: as §1
In data set [4] the parent is B1. Nature of the data set: self-cleavage kobs at 2500 uM GlcN6P; higher = faster cleavage; RNA array. The method in brief: as §1
In data set [5] the parent is B1. Nature of the data set: self-cleavage kobs at 10000 uM GlcN6P; higher = faster cleavage; RNA array. The essentials:
as §1

25 variants from the supplement of paper PMC7125110 can be followed below.

In the case of A12C U65A, the “self-cleavage kobs at 40 uM GlcN6P” value in the data set with glucosamine-6-phosphate [1] came to 3.82e-05 ± 8.1e-06 s⁻¹. Besides, the “self-cleavage kobs at 640 uM GlcN6P” value with glucosamine-6-phosphate [2] was 0.000345 ± 6.5e-05 s⁻¹. Further, the “self-cleavage kobs at 160 uM GlcN6P” value with glucosamine-6-phosphate [3] was found to be 0.000134 ± 3.3e-05 s⁻¹. In addition, the “self-cleavage kobs at 2500 uM GlcN6P” value in the data set with glucosamine-6-phosphate [4] was found to be 0.000932 ± 0.00017 s⁻¹. Also, in the data set with glucosamine-6-phosphate [5], the “self-cleavage kobs at 10000 uM GlcN6P” value is 0.00173 ± 0.00015 s⁻¹.

Turning to A14G A36G A52C C58G, the “self-cleavage kobs at 40 uM GlcN6P” value with glucosamine-6-phosphate [1] was under 1e-05 s⁻¹.

As for A12C A15G, the “self-cleavage kobs at 40 uM GlcN6P” value with glucosamine-6-phosphate [1] was 0.000302 ± 3.5e-05 s⁻¹. For the same variant, the “self-cleavage kobs at 640 uM GlcN6P” value with glucosamine-6-phosphate [2] came out at 0.00332 ± 0.0006 s⁻¹. Moreover, the “self-cleavage kobs at 160 uM GlcN6P” value with glucosamine-6-phosphate [3] came to 0.000883 ± 0.00014 s⁻¹. In addition, the “self-cleavage kobs at 2500 uM GlcN6P” value in the data set with glucosamine-6-phosphate [4] was determined as 0.00626 ± 0.0015 s⁻¹. The “self-cleavage kobs at 10000 uM GlcN6P” value with glucosamine-6-phosphate [5] amounted to 0.0142 ± 0.0018 s⁻¹.

In the case of A14G G35A G41C G51C C71U, in the data set with glucosamine-6-phosphate [1], the “self-cleavage kobs at 40 uM GlcN6P” value is under 1e-05 s⁻¹. Moreover, in the data set with glucosamine-6-phosphate [5], the “self-cleavage kobs at 10000 uM GlcN6P” value is under 1e-05 s⁻¹.

For the variant A12C U46A A48U, the “self-cleavage kobs at 40 uM GlcN6P” value with glucosamine-6-phosphate [1] is under 1e-05 s⁻¹.

For A14G C16A U17C A18U C19A A20C, the “self-cleavage kobs at 40 uM GlcN6P” value with glucosamine-6-phosphate [1] is 0.000161 ± 4.5e-05 s⁻¹. For the same variant, in the data set with glucosamine-6-phosphate [5], the “self-cleavage kobs at 10000 uM GlcN6P” value came to 0.00427 ± 0.00081 s⁻¹.

Regarding C16U G37A G41A U46C C71U, in the data set with glucosamine-6-phosphate [1], the “self-cleavage kobs at 40 uM GlcN6P” value is under 1e-05 s⁻¹. For the same variant, the “self-cleavage kobs at 160 uM GlcN6P” value with glucosamine-6-phosphate [3] is under 1e-05 s⁻¹.

On to C11U G59U G60C C67U, for which the “self-cleavage kobs at 40 uM GlcN6P” value with glucosamine-6-phosphate [1] was under 1e-05 s⁻¹. For the same variant, the “self-cleavage kobs at 2500 uM GlcN6P” value with glucosamine-6-phosphate [4] was under 1e-05 s⁻¹. In addition, in the data set with glucosamine-6-phosphate [5], the “self-cleavage kobs at 10000 uM GlcN6P” value was under 1e-05 s⁻¹.

Turning to A14C A33G G40A, the “self-cleavage kobs at 40 uM GlcN6P” value with glucosamine-6-phosphate [1] is under 1e-05 s⁻¹. The “self-cleavage kobs at 10000 uM GlcN6P” value in the data set with glucosamine-6-phosphate [5] is under 1e-05 s⁻¹.

On to A14C G38U A42U U56A C68A, for which the “self-cleavage kobs at 40 uM GlcN6P” value with glucosamine-6-phosphate [1] was under 1e-05 s⁻¹. For the same variant, in the data set with glucosamine-6-phosphate [3], the “self-cleavage kobs at 160 uM GlcN6P” value is under 1e-05 s⁻¹. Also, the “self-cleavage kobs at 10000 uM GlcN6P” value with glucosamine-6-phosphate [5] was under 1e-05 s⁻¹.

Regarding A12G C58U, the “self-cleavage kobs at 40 uM GlcN6P” value with glucosamine-6-phosphate [1] was under 1e-05 s⁻¹. The “self-cleavage kobs at 2500 uM GlcN6P” value with glucosamine-6-phosphate [4] turned out to be 1.67e-05 ± 7.9e-06 s⁻¹. The “self-cleavage kobs at 10000 uM GlcN6P” value in the data set with glucosamine-6-phosphate [5] is 6.35e-05 ± 8.1e-06 s⁻¹.

Consider G13A C50G G66U U69A, for which, in the data set with glucosamine-6-phosphate [1], the “self-cleavage kobs at 40 uM GlcN6P” value stood at 8.64e-05 ± 2.3e-05 s⁻¹. The “self-cleavage kobs at 640 uM GlcN6P” value with glucosamine-6-phosphate [2] came out at 0.000563 ± 0.00026 s⁻¹. The “self-cleavage kobs at 10000 uM GlcN6P” value in the data set with glucosamine-6-phosphate [5] was 0.000117 ± 3e-05 s⁻¹.

Consider A12G G43A, for which the “self-cleavage kobs at 40 uM GlcN6P” value with glucosamine-6-phosphate [1] was under 1e-05 s⁻¹. Further, the “self-cleavage kobs at 640 uM GlcN6P” value with glucosamine-6-phosphate [2] was under 1e-05 s⁻¹. Further, in the data set with glucosamine-6-phosphate [3], the “self-cleavage kobs at 160 uM GlcN6P” value is under 1e-05 s⁻¹.

Take C11U G32U U49A C71A: the “self-cleavage kobs at 40 uM GlcN6P” value in the data set with glucosamine-6-phosphate [1] is under 1e-05 s⁻¹.

For C11U G13A, the “self-cleavage kobs at 40 uM GlcN6P” value with glucosamine-6-phosphate [1] is under 1e-05 s⁻¹. The “self-cleavage kobs at 2500 uM GlcN6P” value with glucosamine-6-phosphate [4] was 3.03e-05 ± 1.4e-05 s⁻¹. In addition, in the data set with glucosamine-6-phosphate [5], the “self-cleavage kobs at 10000 uM GlcN6P” value came out at 6.97e-05 ± 1.7e-05 s⁻¹.

Take C16G C34G G66C C70U: the “self-cleavage kobs at 40 uM GlcN6P” value with glucosamine-6-phosphate [1] was under 1e-05 s⁻¹.

For the variant A15U G35A C58A, in the data set with glucosamine-6-phosphate [1], the “self-cleavage kobs at 40 uM GlcN6P” value is under 1e-05 s⁻¹. For the same variant, in the data set with glucosamine-6-phosphate [5], the “self-cleavage kobs at 10000 uM GlcN6P” value is under 1e-05 s⁻¹.

In the case of A12G C34G G41C A53G, the “self-cleavage kobs at 40 uM GlcN6P” value with glucosamine-6-phosphate [1] is under 1e-05 s⁻¹.

For A12G G13U G40A, the “self-cleavage kobs at 40 uM GlcN6P” value with glucosamine-6-phosphate [1] is under 1e-05 s⁻¹.

Regarding A12U C50G G51C, the “self-cleavage kobs at 40 uM GlcN6P” value with glucosamine-6-phosphate [1] is under 1e-05 s⁻¹.

For C16U C34U G37A U46C, the “self-cleavage kobs at 40 uM GlcN6P” value with glucosamine-6-phosphate [1] is under 1e-05 s⁻¹.

Take A12C U45C: the “self-cleavage kobs at 40 uM GlcN6P” value with glucosamine-6-phosphate [1] came out at 3e-05 ± 1.2e-05 s⁻¹. Besides, the “self-cleavage kobs at 640 uM GlcN6P” value in the data set with glucosamine-6-phosphate [2] is 0.000289 ± 7.9e-05 s⁻¹. Further, the “self-cleavage kobs at 160 uM GlcN6P” value with glucosamine-6-phosphate [3] was 5.84e-05 ± 2.1e-05 s⁻¹.

Take G29A C70U: the “self-cleavage kobs at 40 uM GlcN6P” value in the data set with glucosamine-6-phosphate [1] was found to be 0.000121 ± 1.3e-05 s⁻¹. Moreover, the “self-cleavage kobs at 640 uM GlcN6P” value with glucosamine-6-phosphate [2] was found to be 0.000483 ± 6e-05 s⁻¹. Besides, the “self-cleavage kobs at 160 uM GlcN6P” value with glucosamine-6-phosphate [3] was 0.000201 ± 2.9e-05 s⁻¹. In addition, the “self-cleavage kobs at 10000 uM GlcN6P” value with glucosamine-6-phosphate [5] came out at 0.0021 ± 0.0006 s⁻¹.

For A12U G41U C61U, in the data set with glucosamine-6-phosphate [1], the “self-cleavage kobs at 40 uM GlcN6P” value is under 1e-05 s⁻¹. In addition, in the data set with glucosamine-6-phosphate [2], the “self-cleavage kobs at 640 uM GlcN6P” value is under 1e-05 s⁻¹. For the same variant, the “self-cleavage kobs at 160 uM GlcN6P” value with glucosamine-6-phosphate [3] was under 1e-05 s⁻¹. Further, the “self-cleavage kobs at 2500 uM GlcN6P” value with glucosamine-6-phosphate [4] is under 1e-05 s⁻¹. In addition, the “self-cleavage kobs at 10000 uM GlcN6P” value with glucosamine-6-phosphate [5] was under 1e-05 s⁻¹.

As for A14C G29A G44C A48U, the “self-cleavage kobs at 40 uM GlcN6P” value with glucosamine-6-phosphate [1] is under 1e-05 s⁻¹. Further, the “self-cleavage kobs at 2500 uM GlcN6P” value with glucosamine-6-phosphate [4] is under 1e-05 s⁻¹.
